From PMC6919601, “Identification of Plasmodium dipeptidyl aminopeptidase allosteric inhibitors by high throughput screening” (PLoS ONE, 2019) come the findings set out here.

Molecules are shown by their SMILES. The whole screen tested about 110,000 compounds, of which about 230 (0.21%) showed an effect of 50% or more. This is one part of the list.
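Note: 30 min substrate incubation versus DMSO and 10 µM JCP410 controls.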

Sequence of DPAP1 (Q8IIJ9 whole entry, looked up): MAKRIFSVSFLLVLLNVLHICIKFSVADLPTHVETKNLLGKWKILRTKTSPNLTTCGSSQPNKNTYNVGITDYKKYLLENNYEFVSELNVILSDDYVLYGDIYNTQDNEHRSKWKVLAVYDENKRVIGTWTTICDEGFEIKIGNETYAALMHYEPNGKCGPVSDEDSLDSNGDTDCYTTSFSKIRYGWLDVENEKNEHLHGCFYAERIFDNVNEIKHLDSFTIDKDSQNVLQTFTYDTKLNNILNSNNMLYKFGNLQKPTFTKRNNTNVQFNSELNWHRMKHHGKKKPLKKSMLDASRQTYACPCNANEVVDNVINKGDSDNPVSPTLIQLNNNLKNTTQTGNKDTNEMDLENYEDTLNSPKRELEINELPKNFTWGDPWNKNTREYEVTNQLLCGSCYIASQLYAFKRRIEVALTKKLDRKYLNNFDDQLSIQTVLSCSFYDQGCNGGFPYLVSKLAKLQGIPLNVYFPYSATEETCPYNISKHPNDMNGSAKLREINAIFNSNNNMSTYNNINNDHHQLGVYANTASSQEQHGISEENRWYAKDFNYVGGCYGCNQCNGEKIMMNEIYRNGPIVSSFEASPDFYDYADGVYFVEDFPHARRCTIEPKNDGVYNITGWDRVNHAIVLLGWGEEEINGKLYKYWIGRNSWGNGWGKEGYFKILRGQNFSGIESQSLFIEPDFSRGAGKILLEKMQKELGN

The assay has as its target DPAP1 (Plasmodium falciparum, UniProt Q8IIJ9). As to the kind of experiment: primary screen, percent inhibition; read by cleavage of a fluorogenic dipeptide substrate; higher = more effect of the substance. Also noted: species or system P. falciparum D10 trophozoite lysates; single well.
For the molecule `COc1ccc(CNCC(C)NCc2ccc(OC)c(OC)c2)cc1OC` (stereo not drawn), the “% Inhibition @ 10 uM” value came out at 1.31%.

For the molecule `COCc1cc(C)n(CC(=O)Nc2ccc(C(C)=O)cc2)c(=O)c1C#N`, the “% Inhibition @ 10 uM” value worked out at 1.35%.

As to `COc1ccc(/C(O)=C/C=N/c2cccc(Cl)c2)cc1OC`, the “% Inhibition @ 10 uM” value was found to be 0.851%.

With `COc1cc(CN2CCN(Cc3cccc(Br)c3)CC2)cc(OC)c1O`, the “% Inhibition @ 10 uM” value is on record as 0.131%.

As to `Cc1ccc(Cn2nnc3c(=O)n(Cc4ccc(C(F)(F)F)cc4)cnc32)cc1`, the “% Inhibition @ 10 uM” value is reported as -2.16%.

On to `CCc1nc2ccc(C(=O)N3CC(C)CC(C)C3)cc2nc1CC` (stereo not drawn), for which the “% Inhibition @ 10 uM” value was determined as 6.71%.

Consider `O=C(N/C(=C\c1ccc(F)cc1)C(=O)N1CCOCC1)c1ccco1`, for which the “% Inhibition @ 10 uM” value is 2.38%.

Consider `COc1ccc(CNc2nc(-c3ccc(Cl)cc3)nn2C(=O)c2ccc(OC)cc2)cc1`, for which the “% Inhibition @ 10 uM” value is 3.93%.

In the case of `Cc1ccc(/C=C2\SC(Nc3ccc(Cl)cc3)=NC2=O)s1`, the “% Inhibition @ 10 uM” value was -1.43%.

With `O=S(=O)(c1ccc(Cl)cc1)N1CCN(S(=O)(=O)c2ccc(Cl)cc2)CC1`, the “% Inhibition @ 10 uM” value stood at 2.05%.

As for `O=C(NC1CCCCC1)C(Cc1ccccc1)NS(=O)(=O)c1cccs1` (stereo not drawn), the “% Inhibition @ 10 uM” value was 1.94%.

Regarding `O=C(c1ccco1)N1CCN(Cc2nc3ccccc3c(=O)n2-c2ccc(F)cc2)CC1`, the “% Inhibition @ 10 uM” value is listed as 1.94%.

As to `Cc1ccc(OCC(=O)Nc2nc3ccccc3s2)c(C)c1`, the “% Inhibition @ 10 uM” value was determined as 0.331%.

Consider `O=C(CN1CCN(C(=O)c2ccco2)CC1)Nc1c2c(nc3c1CCC3)CCCC2`, for which the “% Inhibition @ 10 uM” value is listed as -4.51%.

Consider `CN1C(=O)/C(=C/c2ccc(O)c(Cl)c2)S/C1=N/c1cccc(C(=O)O)c1`, for which the “% Inhibition @ 10 uM” value is given as 24.7%.

Take `COc1ccc(-c2cc3c4c(C)n(Cc5ccccc5)c(C)c4c(C)nn3c2)cc1`: the “% Inhibition @ 10 uM” value was -2.92%.

For `O=C(CCN1C(=O)c2ccccc2C1=O)NCCc1ccccc1`, the “% Inhibition @ 10 uM” value is on record as 1.42%.

Consider `CC1CCN(C2=NC(=O)/C(=C/c3ccccc3F)S2)CC1`, for which the “% Inhibition @ 10 uM” value was found to be 0.408%.

On to `C=CCn1c(CNC(=O)Cc2ccccc2)nc2ccccc21`, for which the “% Inhibition @ 10 uM” value is given as -6.5%.

For `CC(C)(C)C(=O)Nc1cc(NC(=O)C(C)(C)C)cc(C(=O)O)c1`, the “% Inhibition @ 10 uM” value is on record as -3.52%.

For the molecule `COc1ccc(C(=O)NCc2ccc(C(=O)O)cc2)cc1OC`, the “% Inhibition @ 10 uM” value is reported as -0.256%.

In the case of `CN(Cc1ccccc1)Cc1nc2c(c(=O)n(C)c(=O)n2C)n1Cc1ccc(F)cc1`, the “% Inhibition @ 10 uM” value is 2.9%.

As for `OC1CCN(c2ccc(-c3ccccc3)nn2)CC1`, the “% Inhibition @ 10 uM” value is given as -2.97%.

`CC1=NC(C(F)(F)F)(C(F)(F)F)C2=C(CC(C)(C)CC2=O)N1C(C)c1ccccc1` (stereo not drawn): the “% Inhibition @ 10 uM” value was -11.3%.

For the molecule `Cc1ccc(NC(=O)CSC(N)=O)cc1`, the “% Inhibition @ 10 uM” value was 1.44%.

For the molecule `CC1=CC2=NC(=O)/C(=C\c3ccc(Sc4ccccc4)o3)C(=N)N2O1`, the “% Inhibition @ 10 uM” value was 0.317%.

Consider `CN1C(C(=O)NCc2cccs2)=CC(c2ccco2)=NS1(=O)=O`, for which the “% Inhibition @ 10 uM” value is listed as -2.84%.
